Experimental data published in publication PMC4525183, “Snf1/AMP-activated protein kinase activates Arf3p to promote invasive yeast growth via a non-canonical GEF domain” (Nature Communications, 2015).
Numbering of substitutions follows the chain as printed. Names and notes keep the numbering of the source. No constants are given. Whether binding was seen depends on the method and setting. For some assays here: In cells and extracts the contact can be indirect. Some binding calls cover weakened binding; strength is not graded here. Tags and fused reporters may be left off the sequences shown. Values belong to the binder of their own block, whether it stands above or below them.

Columns and labels:
GST-Snf1 (S. cerevisiae) = target: T1, GST-Snf1 (S. cerevisiae) (UniProt P06782); test: pull-down; GST fusions on glutathione-Sepharose 4B beads, His-tagged protein in solution (His-Arf3 loaded with GDP or GTPγS); 50 mM Tris-HCl pH 7.5, 150 mM NaCl, 1% Triton X-100, 1 mM DTT, 10 mM MgCl2; 1 h, 4 °C; anti-His blot; both purified
T1 sequence: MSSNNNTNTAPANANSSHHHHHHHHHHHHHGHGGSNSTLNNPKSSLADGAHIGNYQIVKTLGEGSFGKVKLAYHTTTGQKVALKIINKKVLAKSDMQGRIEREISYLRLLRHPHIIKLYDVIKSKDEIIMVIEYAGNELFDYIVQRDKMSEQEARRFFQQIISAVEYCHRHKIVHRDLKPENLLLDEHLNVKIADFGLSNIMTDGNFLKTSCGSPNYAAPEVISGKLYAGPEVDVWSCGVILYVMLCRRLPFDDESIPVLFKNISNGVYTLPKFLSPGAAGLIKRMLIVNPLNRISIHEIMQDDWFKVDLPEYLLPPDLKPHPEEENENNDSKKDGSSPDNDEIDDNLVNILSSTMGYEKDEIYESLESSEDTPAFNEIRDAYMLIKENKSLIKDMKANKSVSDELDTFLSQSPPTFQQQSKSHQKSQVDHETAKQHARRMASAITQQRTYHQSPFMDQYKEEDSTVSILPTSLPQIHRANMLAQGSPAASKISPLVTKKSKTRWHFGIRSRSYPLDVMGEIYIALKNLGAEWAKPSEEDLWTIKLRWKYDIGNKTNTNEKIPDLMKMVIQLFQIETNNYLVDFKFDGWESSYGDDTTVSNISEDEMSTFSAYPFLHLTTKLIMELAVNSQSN

Snf1p-HA (S. cerevisiae) = target: T2, Snf1p-HA (S. cerevisiae) (UniProt P06782); test: co-IP; lysates of Σ1278b yeast co-expressing Arf3p and Snf1p-HA; anti-HA agarose, 4 °C, 2 h; PBS with 1 mM DTT, 5 mM MgCl2; washes with 0.5% Triton X-100; blot for Arf3p; cells in YPD or after 2 h of glucose depletion (YP)
T2 sequence: T1 sequence

[1] = target: T3, GST-Snf1-C (a.a. 311–633) (S. cerevisiae, UniProt P06782 311-633); test: pull-down; yeast cells lysed without or with EDTA; proteins of the lysate precipitated by GST-Snf1-C; blot for Arf3p; only the target purified
T3 construct: Snf1p, S. cerevisiae, C-terminal regulatory domain, a.a; 311–633; Vector pGEX4T-1; also called C-terminal regulatory domain of Snf1p; source: E. coli BL21 (DE3), purified (glutathione-Sepharose 4B)
T3 sequence (looked up): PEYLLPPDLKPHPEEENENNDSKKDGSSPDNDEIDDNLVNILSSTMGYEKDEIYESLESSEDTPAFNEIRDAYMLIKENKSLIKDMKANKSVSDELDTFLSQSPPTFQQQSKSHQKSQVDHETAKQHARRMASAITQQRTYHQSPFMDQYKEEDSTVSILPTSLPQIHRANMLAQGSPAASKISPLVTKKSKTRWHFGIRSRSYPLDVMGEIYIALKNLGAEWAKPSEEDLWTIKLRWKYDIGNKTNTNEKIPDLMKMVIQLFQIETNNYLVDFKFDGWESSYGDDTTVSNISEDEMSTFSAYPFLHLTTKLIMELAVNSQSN

binding (GST-Snf1 (S. cerevisiae)): binds
B1: His-Arf3^T31N (natural protein, S. cerevisiae, UniProt P40994 1-183, looked up)
chain: MGNSISKVLGKLFGSKEMKILMLGLDKAGKNTILYKLKLNKIKTSTPTVGFNVETVTYKNVKFNMWDVGGQQRLRPLWRHYFPATTALIFVIDSSARNRMEEAKEELYSIIGEKEMENVVLLVWANKQDLKDAMKPQEVSDFLELEKNLKNQPWCVIGSNALSGQGLVEGLSWISNNTNVPKK
notes: Arf3p, S. cerevisiae; T31N; plasmid pET32a-ARF3 (T31N); pET32a usually adds thioredoxin, His and S tags before the insert

binding (Snf1p-HA (S. cerevisiae)): binds
B2: dominant-negative Arf3p^T31N (in yeast) (protein, UniProt P40994 1-183)
chain: B1 chain

binding (Snf1p-HA (S. cerevisiae)): binds
binding [1]: binds
B3: Arf3p (wild type, in yeast) (protein, UniProt P40994 1-183)
chain: B1 chain with N31T

binding (GST-Snf1 (S. cerevisiae)): no binding
B4: His-Arl1^T32N (protein, UniProt P38116 1-183)
chain: MGNIFSSMFDKLWGSNKELRILILGLDGAGKNTILYRLQIGEVVTTKPTIGFNVETLSYKNLKLNVWDLGGQTSIRPYWRCYYADTAAVIFVVDSTDKDRMSTASKELHLMLQEEELQDAALLVFANKQDQPGALSASEVSKELNLVELKDRSWSIVASSAIKGEGITEGLDWLIDVIKEEQL
